The text below walks through data of publication PMC6274998 (2018).

The target in this assay is T1, ClpS (Mycobacterium tuberculosis, UniProt A5U231).
T1 chain: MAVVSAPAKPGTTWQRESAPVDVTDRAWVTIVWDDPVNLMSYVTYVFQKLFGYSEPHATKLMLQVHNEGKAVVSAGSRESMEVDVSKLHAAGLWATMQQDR

B1: ClpC1 (protein)
chain: not shown
As for B1, the Kd is approximately 325 nM.
